Tests used:
[1] = test system: influenza virus; assay: Clinical test (Ph3: child): time to alleviation of influenza symptoms; conditions: patients 6 months old or older and younger than 12 years old; single oral 5, 10, 20 or 40 mg by body weight; ITTI
[2] = test system: influenza virus; assay: Clinical test (Ph3: adults and adolescents): time to alleviation of influenza symptoms
[3] = test system: influenza virus; conditions: 20 years old or older and younger than 65 years old
[4] = 20 years old or older and younger than 65 years old, Compound II-6 single 40 or 80 mg, Oseltamivir 75 mg twice a day for 5 days

SMILES	Time (median) to alleviation of influenza symptoms (cough, runny nose/nasal congestion, fever) [1] [h]	Time to alleviation of influenza symptoms, difference between groups vs placebo ([2]; 12 years old or older and younger than 65 years old) [h]	Time to alleviation of influenza symptoms, median ([2]; 12 years old or older and younger than 65 years old, single oral 40 or 80 mg depending on body weight, ITTI) [h]	Time to alleviation of influenza symptoms, difference between groups vs Oseltamivir ([2]; 20 years old or older and younger than 65 years old) [h]	Time to alleviation of influenza symptoms, median [2, 4] [h]	Time (median) to termination of viral shedding based on virus titer [3] [h]
COC(=O)OCOc1c2n(ccc1=O)N([C@@H]1c3ccccc3SCc3c1ccc(F)c3F)[C@@H]1COCCN1C2=O [II-6]	44.6	-26.5	53.7	-0.3	53.5	24.0
CCOC(=O)C1=C[C@@H](OC(CC)CC)[C@H](NC(C)=O)[C@@H](N)C1 [Oseltamivir, reference compound]	–	–	–	–	53.8	72.0

— patent publication US10759814B2, “Pharmaceutical compositions containing substituted polycyclic pyridone derivatives and prodrug thereof” (priority 2016, dated 2020)
